The values below come from article PMC7819943, “Rice protein-binding microarrays: a tool to detect cis-acting elements near promoter regions in rice”.

The other results are listed elsewhere or left out.

In the assay the target is T1, OsWOX13 (Oryza sativa, UniProt Q5QMM3 1-267).
T1 sequence: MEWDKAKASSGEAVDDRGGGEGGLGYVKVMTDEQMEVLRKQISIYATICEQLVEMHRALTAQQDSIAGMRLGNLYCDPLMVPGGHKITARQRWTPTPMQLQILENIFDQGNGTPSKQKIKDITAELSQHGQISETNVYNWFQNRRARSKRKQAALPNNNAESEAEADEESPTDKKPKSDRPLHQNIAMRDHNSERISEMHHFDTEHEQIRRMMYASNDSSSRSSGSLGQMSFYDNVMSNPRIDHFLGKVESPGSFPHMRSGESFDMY
Briefly: protein-binding microarray (RPBM); PBS, 2% BSA, 51.3 ng/ul salmon testes DNA, 50 uM zinc acetate, 200 nM TF, 25 C, 1 h; high values mean tight binding. The note with it: protein: recombinant; tags: N-terminal polyhistidine and DsRed monomer fusion (pET32a); label: CyDye5-dUTP incorporated in the synthesized complementary strand; 3' TTTTT single-stranded linker to array surface; dsDNA, one strand shown. A digest of the protocol:
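An Axon 4000B scanner gave the binding signal as per-feature fluorescence intensity in arbitrary units. This followed washing of a custom Agilent array that had been incubated for 1 h at 25 °C with 200 nM protein in PBS, 2% BSA, salmon testes DNA and 50 µM zinc acetate. The proteins were transcription factors fused at the N-terminus to polyhistidine and DsRed, expressed in E. coli BL21-CodonPlus and purified on Ni–NTA.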
For the sequence “CCTTGACAGGTAATAGCCCTAATCCAGTTGATATGGGATTCGGAGTCACCTAGTGCAG”, the binding signal was 30300 fluorescence intensity (a.u.).
As for “CAAATTGAATTTTACTGTTAGAATCCAAGGAAATGATCGTCGGAGTCACCTAGTGCAG”, the binding signal was 24400 fluorescence intensity (a.u.).
For “CCAAATTGTTGTTGCCACATCCTTGATCGTATGCTTCTTACGGAGTCACCTAGTGCAG” the value was 7590 fluorescence intensity (a.u.).
For “CTTTGTAATTGGAGTCAATCAAATTGAATGATTTCCCTTTCGGAGTCACCTAGTGCAG” the value was 58900 fluorescence intensity (a.u.); for “CCCAAACTACACATAATTAGAAATCACCCTCCAAATCACCCGGAGTCACCTAGTGCAG”, 16400 fluorescence intensity (a.u.).
Regarding “AATAATAATTTTGATTTGTTTGCAAGTACTACCAGCTAGCCGGAGTCACCTAGTGCAG”, the binding signal is 40100 fluorescence intensity (a.u.).
With “AAACATTAATTTGTTTTATAATATATTATAAATGACTATACGGAGTCACCTAGTGCAG”, the binding signal is 15500 fluorescence intensity (a.u.).
In the case of “GAAATGATTCTGATAAATGGGGAGGTTGGAATGATGCAGCCGGAGTCACCTAGTGCAG”, the binding signal is 4230 fluorescence intensity (a.u.).
The figure for “AATTATGCAACTTTAAATTTGCTATCACCCCAAGTACATCCGGAGTCACCTAGTGCAG” is 3410 fluorescence intensity (a.u.); for “CACTGATTTTAGGAGTTGAGGGACGCGTCATACAGTCATACGGAGTCACCTAGTGCAG” it is 4870 fluorescence intensity (a.u.); for “TAGTCAATTACTACTAGGTATGTGCTATTCATAACCATGACGGAGTCACCTAGTGCAG” it is 7320 fluorescence intensity (a.u.).
For “CGGTGGACGCGTCGCTGATTGAGTTGCCTTGTACCTATAACGGAGTCACCTAGTGCAG” the value was 5590 fluorescence intensity (a.u.); for “TCACAATAGATAATTTATTCACTGAAAATTTTAGTTTTGGCGGAGTCACCTAGTGCAG”, 11100 fluorescence intensity (a.u.); for “GACGTAATTAGCGCAAACTGTTAGGCCCAAATGCGTCATTCGGAGTCACCTAGTGCAG”, 29500 fluorescence intensity (a.u.).
As for “CAAATAAACAGGGTTCAGTCAAACTCAAGTGAATGAATTGCGGAGTCACCTAGTGCAG”, the binding signal is 11500 fluorescence intensity (a.u.).
“TGTGATCTGATTGTTTGAAGTTTGCATTCTACTATGTCTGCGGAGTCACCTAGTGCAG”: the binding signal was 36800 fluorescence intensity (a.u.).
The figure for “ACGAATTGACAACGAGGCAGCCCACAGACTTCGGCGCCCACGGAGTCACCTAGTGCAG” is 15200 fluorescence intensity (a.u.); for “ACTTTAATAAATTAATAGATTTCAATAACACAGTTACGAACGGAGTCACCTAGTGCAG” it is 18400 fluorescence intensity (a.u.).
For “AAAATTTAAATTTTCAACTTTAAATTTAGAGTTTATTTTGCGGAGTCACCTAGTGCAG” the value was 15700 fluorescence intensity (a.u.); for “CCTATCAATTTGTTTTGCACCTTCTTGTGATGAAACTTAACGGAGTCACCTAGTGCAG”, 5820 fluorescence intensity (a.u.).
“AAACATATTAGTTAAAATTTAACTTCTACAAATTGTAACACGGAGTCACCTAGTGCAG”: the binding signal is 6520 fluorescence intensity (a.u.).
“CTTAATTAGCTCTAGCGAGCTAGCTAGCTTGCTCTGTCTTCGGAGTCACCTAGTGCAG”: the binding signal was 24200 fluorescence intensity (a.u.).
For “TATCAGAATTTAAATTGCATAACACACAAATGACCAAAATCGGAGTCACCTAGTGCAG”, the binding signal was 5330 fluorescence intensity (a.u.).
Consider “GATTAAACTAAGTTTGTTAATGGAGAAATAGTTTAAATCGCGGAGTCACCTAGTGCAG”, for which the binding signal is 5640 fluorescence intensity (a.u.).
On to “GCGTAATTAGGCGGAGAGATTATAGGGAGAGAGATCGCGACGGAGTCACCTAGTGCAG”, for which the binding signal is 16700 fluorescence intensity (a.u.).
For “TTTGATCGTACTAAAATTAGTATTTTCCTTTCTCAGGCATCGGAGTCACCTAGTGCAG”, the binding signal is 5160 fluorescence intensity (a.u.).
Regarding “TAATTATAATTTTGTTTAGCATATATTAAGTTTTGGAAGACGGAGTCACCTAGTGCAG”, the binding signal is 5790 fluorescence intensity (a.u.).
For “TCTATAAATTGGCTACTACGTCCTCATTGCAAGACTCCCCCGGAGTCACCTAGTGCAG”, the binding signal was 24500 fluorescence intensity (a.u.).
The figure for “CATTGAATGTTTGGACACTAATTATAAATATTAAACGTAGCGGAGTCACCTAGTGCAG” is 9090 fluorescence intensity (a.u.); for “TATCCGACCTGCCTCATCTGCCAATCATTGCATTCCATATCGGAGTCACCTAGTGCAG” it is 3450 fluorescence intensity (a.u.).
Take “AGATACTAAAATCAATCAAACATTTTGATATATGACCATCCGGAGTCACCTAGTGCAG”: the binding signal was 17500 fluorescence intensity (a.u.).
“ATGGTGATAGACGAGTTTAGATATAACCGGAACAATTCGCCGGAGTCACCTAGTGCAG”: the binding signal is 26500 fluorescence intensity (a.u.).
The figure for “AAATGCGAGAAGAATTAATTACCAATCCCAATTATGTCGACGGAGTCACCTAGTGCAG” is 6710 fluorescence intensity (a.u.); for “TAACGTATAATTAATTGAGTTTAATTAAGTATTACAAATTCGGAGTCACCTAGTGCAG” it is 27000 fluorescence intensity (a.u.); for “CATGGATTAATTAGGCTCAATAGATTCGTCTCGGGAATTACGGAGTCACCTAGTGCAG” it is 10300 fluorescence intensity (a.u.).
Regarding “TTCCTAATTGTATTTCTATATGGACTCTATACTCTACTTCCGGAGTCACCTAGTGCAG”, the binding signal was 25000 fluorescence intensity (a.u.).
For “ACACATACTATTCAATTTGCCAATAAATTGGTAGCGCATGCGGAGTCACCTAGTGCAG” the value was 18600 fluorescence intensity (a.u.); for “GGGTATAATAGAGAAAATTTTCTGGATGGGAGTATGGGACCGGAGTCACCTAGTGCAG”, 6590 fluorescence intensity (a.u.); for “TATTGACAAAGTTTCAATTGCAGCAATTACGCGAGGATCCCGGAGTCACCTAGTGCAG”, 5120 fluorescence intensity (a.u.).
Turning to “CCCTACTGATCAGATTATCATGGCACACTTTAGCTCATTGCGGAGTCACCTAGTGCAG”, the binding signal was 7380 fluorescence intensity (a.u.).
For “GCCTTAATCACACCATTAATTCTCTAGTCTAAACCTCCAACGGAGTCACCTAGTGCAG”, the binding signal is 14600 fluorescence intensity (a.u.).
The figure for “TTCAAATCAAATATATCAGATCAATACGATCCCGATTCGGCGGAGTCACCTAGTGCAG” is 3250 fluorescence intensity (a.u.).
